Results reported in PubChem BioAssay AID1963576 (National Center for Advancing Translational Sciences (NCATS), 2024).
About 60 (0.1%) of roughly 46,000 compounds were called active. About 3% were inconclusive and are not listed. The call rests on the fitted dose curve; in most records, active means well fitted inhibition curve with a large enough effect; inconclusive means small, poorly fitted or top-dose-only effect; inactive means no such curve, though single readings can be large or run the other way. This is one part of the list.

Experiment: Primary qHTS assay for Inhibitors of ovarian cancer metastasis using an organotypic tumor microenvironment (TME) model. Further: nearly all actives have a fitted effect of over 65% in size.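 On activity change, negative = inhibition: plate controls were DMSO wells for no effect and tomatine positive control wells for full effect.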
Conditions: SKOV3ip1-GFP adhesion/invasion on 3D omental model, fluorescence; series mostly up to 45.8 µM; activity change, negative = inhibition: at the top concentration
In short: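 Primary human omental fibroblast/mesothelial 3D culture pre-formed 48 h. SKOV3ip1-GFP cells added with compounds (0.36-46 umol/L), incubated 2 h RT/16 h 37 C, fixed; GFP cells quantified at 488/509 nm.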

outcome, inactive:
O=C(CNS(=O)(=O)c1cccs1)N1CCN(c2cccc(C(F)(F)F)c2)CC1
Fc1ccc(-c2noc3ncnc(NC4CCCCC4)c23)cc1
COc1ccc(CNC(=O)c2ccc(NC(=O)N3CCCCc4ccccc43)cc2)cc1
COc1cc(C2CC(=O)Nc3cc4c(cc32)OCCO4)cc(Br)c1OC (centres undefined)
CCCCOc1cccc(C(=O)N(Cc2sccc2C)C2CCS(=O)(=O)C2)c1 (centres undefined)
CCOc1ccccc1NC(=O)CCn1nc(C)c(S(=O)(=O)N2CCCCC2)c1C
COC(=O)CCN(c1ccccc1)S(=O)(=O)c1cc(-c2cc(C)no2)ccc1OC
CC(=O)N1CCc2cc(S(=O)(=O)CCC(=O)NCc3ccc(Cl)cc3)ccc21
CCc1ccc(NC(=O)CSC2=Nc3ccccc3C3=NC(CC(=O)NCc4ccccc4)C(=O)N23)cc1 (centres undefined)
Cc1nc2ncnn2c(C)c1CCC(=O)NCc1ccccc1Cl
Cc1c(C(=O)Nc2cccc(Cl)c2)oc2ccc(S(=O)(=O)N(C)C3CCCCC3)cc12
CS(=O)(=O)N1CCC(N2CCN(Cc3ccccc3)C(=O)C2=O)CC1
COCCn1c(=N)c(C(=O)NC(C)c2ccccc2)cc2c(=O)n3cc(C)ccc3nc21 (centres undefined)
Cc1ccc(NC(=O)[C@@H](c2ccccc2)N2Cc3ccccc3C2=O)cc1
CCc1ccccc1NC(=O)CSc1nnc2ccc3ccccc3n12
Cc1cccc(N2CCN(S(=O)(=O)c3cc(C(=O)Nc4ccccc4Cl)ccc3F)CC2)c1C
Brc1ccc(-n2nc(-c3ccccc3)c3cnc4cc5c(cc4c32)OCO5)cc1
CCn1c(=O)cc(OCC(=O)Nc2cc(Cl)c(OC)cc2OC)c2ccccc21
CCOc1ccc(CCNC(=O)c2cc3c(-c4ccc(OC)c(OC)c4)nn(C)c3s2)cc1OCC

Activity change, negative = inhibition, inactive:
CCc1ccccc1NC(=O)C1=C(C)C(=O)OC12CCCCCC2 -1.21%
COc1cc(CN2CCN(S(=O)(=O)c3ccccc3)CC2)cc(OC)c1O 8.49%
CC[C@]1(O)C[C@H]2CN(CCc3c([nH]c4ccccc34)[C@@](C(=O)OC)(c3cc4c(cc3OC)N(C=O)[C@H]3[C@@](O)(C(=O)OC)[C@H](OC(C)=O)[C@]5(CC)C=CCN6CC[C@]43[C@@H]65)C2)C1 6.28%
COc1cc(NC(=O)CSc2ncc(S(=O)(=O)c3ccc(Br)cc3)c(=O)[nH]2)cc(OC)c1 -4.95%
COc1ccc(CNC(=O)c2cc3c(=O)oc4ccc(C)cc4c3s2)c(OC)c1 -12%
COc1ccc(OC)c(NC(=O)c2cccn2-c2nnc(N3CCCCC3)s2)c1 19.3%
Cc1cccc(NC(=O)C(=O)NCC(c2ccc3c(c2)OCO3)N2CCN(C)CC2)c1C (centres undefined) -7.42%
Cc1cccc(N2CCN(C(=O)CCCCn3c(=O)[nH]c4ccsc4c3=O)CC2)c1C 17.2%
COc1ccc(Cn2c(=O)c3oc4ccccc4c3n(Cc3ccc(F)cc3)c2=O)cc1 -26.6%
CCN(CC)S(=O)(=O)c1ccc2oc(C(=O)N(C)Cc3ccccc3)c(C)c2c1 -9.42%
COc1ccc(C2C=C(c3ccccc3)Nc3nc(NC(=O)/C=C/c4ccccc4)nn32)cc1 (centres undefined) 7.09%
Cn1ccc2c(OCC(=O)Nc3cc(C(F)(F)F)ccc3Cl)cccc2c1=O -22.5%
O=C(NCCCc1ccccc1)C1CCN(C(=O)N2CCOc3ccc(Cl)cc32)CC1 2%
CCN1CCSc2ccc(C(=O)NCc3ccc(OC)cc3)cc21 3.09%
O=C(Cn1ncc2c3ccccc3n(Cc3cccc(Cl)c3)c2c1=O)NC1CCCCCC1 -3.77%
CCN(CC)S(=O)(=O)c1ccc2c(c1)c(=O)c(C(=O)N1CCN(c3ccc(F)cc3)CC1)cn2C -23.3%
CCOc1ccccc1N(CC(=O)N1CCc2ccccc2C1)S(=O)(=O)c1ccccc1 12.9%
O=S(=O)(Nc1cccc(-c2ccc(N3CCCCCC3)nn2)c1)c1cccc(F)c1 -3%
COc1cccc(NC(=O)Cn2c(=O)n(-c3ccc(C)cc3)c(=O)c3ccc(C(=O)NCc4ccco4)cc32)c1 -6.28%
CCOc1ccc2oc(=O)cc(CN3CCN(C(=O)c4ccc(F)cc4)CC3)c2c1 2.12%
CCNC(=O)CC1C(=O)N(c2cccc(OC)c2)C(=O)N1Cc1ccc(OC)c(OC)c1 (centres undefined) -4.31%
O=C1CCSC2(C(=O)N(Cc3ccc(F)cc3)c3ccccc32)N1c1ccc(F)c(F)c1 (centres undefined) -12%
CCc1ccc(-c2nc(CS(=O)CC(=O)NCCc3ccc(Cl)cc3)c(C)o2)cc1 (centres undefined) 4.77%
COc1ccc(CCNC(=O)C(=O)NCC(c2ccco2)S(=O)(=O)c2ccc(F)cc2)cc1 (centres undefined) -22.8%
CCc1cccc(NC(=O)C(c2ccccc2)N2Cc3ccccc3C2=O)c1 (centres undefined) 5.96%
CCC(Sc1nncn2c1cc1oc(C)cc12)C(=O)Nc1ccc(F)cc1 (centres undefined) -9.52%
CCOCc1ccccc1Nc1ncnc2onc(-c3ccc(Cl)cc3)c12 -1.98%
COc1cc(C)c(C)cc1S(=O)(=O)Nc1cccc(-c2ccc(N3CCOCC3)nn2)c1 3.76%
CCC(C)NC(=O)CCc1c(C)nc2nc(-c3cc(OC)cc(OC)c3)nn2c1C (centres undefined) -5.4%
O=C(CSCc1cc(=O)c2cc(F)ccc2[nH]1)Nc1ccccc1Cl 0.969%
COC(=O)c1cc2oc3ccccc3c2n1Cc1nc(-c2ccccc2C)oc1C 3.56%
Cc1ccc2[nH]c(CSc3nnc(NC(=O)c4ccc(Cl)cc4)s3)cc(=O)c2c1 -4.67%
COc1ccc(OC)c(CCNc2nc3ccccc3c3nc(-c4cccnc4)nn23)c1 45.9%
CCCN(C(=O)c1coc(=O)c2ccccc12)c1ccccc1C 0.923%
CCc1ccc(OCC2c3cc(OC)c(OC)cc3CCN2C(=O)COc2ccccc2)cc1 (centres undefined) -5.62%
Cc1ccc(CCNC(=O)C2CCN(Cc3nc(-c4ccccc4C)oc3C)CC2)cc1 -3.76%
CCCN(CCC)C(=O)c1c2c(nc3ccccc13)C(=O)N(C1CCCCC1)C2 -2.98%
Cc1cc(S(=O)(=O)C(CNC(=O)COc2ccc(Cl)cc2)c2cccs2)ccc1F (centres undefined) -0.324%
CCOc1ccc(NC(=O)Cn2cc(C(=O)c3ccco3)c3ccccc32)cc1 6.4%
O=C(Nc1cccnc1Cl)c1cc(-c2cccc(Cl)c2)on1 -8.4%
